Data: PubChem BioAssay AID686979 (National Center for Advancing Translational Sciences (NCATS), 2013)
In all, about 420,000 compounds went through this assay and about 50,000 (12%) were called active. The shares of active, inactive and inconclusive entries below differ from those in the screen. The call rests on the fitted dose curve; in most records, active means well fitted inhibition curve with a large enough effect; inconclusive means small, poorly fitted or top-dose-only effect; inactive means flat fitted curve, though single readings scatter. No potency is given beside an inconclusive call; the fits are too rough.

Experiment: qHTS for Inhibitors of human tyrosyl-DNA phosphodiesterase 1 (TDP1): qHTS in cells in presence of CPT; further: nearly all actives have a fitted effect of over 55% in size
Settings: chicken DT40 Tdp1-/-;hTDP1 cells + 20 nM CPT, ATP luminescence, 48 h; activity change, negative = growth inhibition: at 46.2 µM (top of the series) unless noted
In short: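 Cell growth measured by CellTiter-Glo luminescence after a minimum 48 h, 37 C compound exposure with 20 nM CPT in Tdp1-knockout DT40 cells stably expressing hTDP1, seeded 400/well; qHTS titration format.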
On the % scale 0 is the no-effect control and ±100 the full control effect; potency means the concentration at half of the fitted maximal effect; tags describe the fitted curve by direction and shape.

With `CN(CC(=O)N1CC=C(c2ccccc2)CC1)S(=O)(=O)c1ccc2c(c1)c(=O)n(C)c(=O)n2C` as the compound, how does the Potency read?
Its Potency is inconclusive [inhibitor, single point].

With `N#Cc1cc([N+](=O)[O-])ccc1Oc1cccc(/C=N/NC(=O)c2ccc(Cl)cc2)c1` as the compound, how does the Potency read?
The Potency was inconclusive [inhibitor, single point].

With `CCc1ccccc1Nc1cc(C(=O)NCc2ccc(C)cc2)c2ccccc2n1` as the compound, how does the Potency read?
Its Potency is active: 20.6 µM.

For `COc1ccc(CCN2C(=S)N(c3ccccc3)C(=O)C2CC(=O)O)cc1OC` (centres undefined), which Potency is on record?
Its Potency is “inactive”.

For `CCCNC(=O)CSCc1nc(-c2ccc(SC)cc2)oc1C`, which Potency is on record?
The Potency was inconclusive [inhibitor, single point].

For `OC[C@@H](O)[C@@H](O[C@@H]1O[C@H](CO)[C@H](O)[C@H](O)[C@H]1O)[C@H](O)[C@@H](O)CO`, which Potency is on record?
The Potency was “inactive”.

For `CC1CC(C)CN(C(=O)CCS(=O)(=O)c2ccc3c(c2)NC(=O)CS3)C1` (centres undefined), which Potency is on record?
The Potency was inconclusive [inhibitor, single point].

For `N#Cc1cccc(-c2nc(Nc3ccccc3)c3ccccc3n2)c1`, which Potency is on record?
The Potency was “inactive”.

Which Potency does the source give for `COc1ccc(C)cc1Nc1nc2c(S(=O)(=O)c3cccc(Cl)c3)nnn2c2ccsc12` here?
The Potency was inconclusive [inhibitor, single point].

For `Cc1cccc(C)c1NC(=S)N(Cc1ccco1)C1CCN(C(C)C)CC1`, which Potency is on record?
Its Potency is “inactive”.

For `COc1ccc(CNC(=S)NCc2ccc(Cl)cc2)cc1OC`, which Potency is on record?
Its Potency is inconclusive [inhibitor, single point].

For `O=C(NCCCN1CCOCC1)c1cn(-c2ccccc2)nc1-c1ccc(Br)cc1`, which Potency is on record?
The Potency was inconclusive [inhibitor, single point].

For `CC(C)c1ccc(O)c(NC(=S)NC(=O)c2cccnc2)c1`, which Potency is on record?
The Potency was active: 4.61 µM.

Which Potency does the source give for `CCCOc1ccccc1-c1nc(SCC(=O)c2ccccc2)n[nH]1` here?
Its Potency is active: 16.4 µM.

With `CCCCC1CC(CSC(=N)N)OC1=O` (centres undefined) as the compound, how does the activity change, negative = growth inhibition read?
Its activity change, negative = growth inhibition is inconclusive: -32% [inhibitor].

For `N#Cc1ccc(-c2nc3ccc(Cl)cn3c2Cc2cccc(Cl)c2)cc1`, which Potency is on record?
Its Potency is inconclusive [inhibitor, single point].

For `Cc1ccc(-c2cc(NC(=O)c3ccccc3Cl)on2)cc1`, which Potency is on record?
Its Potency is inconclusive [inhibitor, single point].

With `COc1ccc(-c2noc(Cn3cc(S(=O)(=O)N4CCCC4)ccc3=O)n2)cc1` as the compound, how does the Potency read?
The Potency was “inactive”.

With `CCc1ccccc1NC(=O)CNC(=O)c1ccc(OCc2cn3ccccc3n2)cc1` as the compound, how does the activity change, negative = growth inhibition read?
Its activity change, negative = growth inhibition is inconclusive: -35.2% [inhibitor].

Which Potency does the source give for `CCC1(c2ccccc2)NC(=O)N(CC(=O)Nc2ccc(S(=O)(=O)NC3=NCCCCC3)cc2)C1=O` (centres undefined) here?
Its Potency is “inactive”.

Which Potency does the source give for `CC(C)CN1CCNC(=O)C1CC(=O)N(C)CC1CCOCC1` (centres undefined) here?
Its Potency is “inactive”.

For `COc1ccc(CCNC(=O)c2cc(S(=O)(=O)N3CCCC3)cn2C)cc1OC`, which Potency is on record?
The Potency was inconclusive [inhibitor, partial curve, poor fit].

Which Potency does the source give for `CCCCCCn1cc(C(=O)OCC)c(=O)c2cc(F)c(F)cc21` here?
Its Potency is inconclusive [inhibitor, single point].

For `O=C(Nc1ccc(C(=O)N2CCN(c3ccc(F)cc3)CC2)cc1)c1nsc2ccccc12`, which Potency is on record?
Its Potency is inconclusive [inhibitor, single point].

For `CN(C)c1ccc(C(C(=O)NCC2CCCO2)N(Cc2ccco2)C(=O)c2snc(C(N)=O)c2N)cc1` (centres undefined), which Potency is on record?
The Potency was inconclusive [inhibitor, single point].

Which Potency does the source give for `CC1CCCN(C(=O)CCS(=O)(=O)c2ccc3c(c2)NC(=O)C(C)S3)C1` (centres undefined) here?
Its Potency is inconclusive [inhibitor, single point].

With `NS(=O)(=O)c1ccc(S(=O)(=O)N2CCN(c3nc(-c4cccs4)nc4ccccc34)CC2)cc1` as the compound, how does the Potency read?
The Potency was inconclusive [inhibitor, single point].

With `CCOc1cc(CNS(=O)(=O)c2ccc3c(c2)CC(=O)N3C)cc(OCC)c1OCC` as the compound, how does the Potency read?
Its Potency is “inactive”.

For `COc1ccc(C2CCCN2C(=S)Nc2cccc(Cl)c2C)cc1OC` (centres undefined), which Potency is on record?
The Potency was inconclusive [inhibitor, partial curve].

Which Potency does the source give for `CCCNC(=O)NNC(=O)c1ccc(F)cc1` here?
The Potency was inconclusive [inhibitor, single point].

With `COC(=O)c1c(NC(=O)C2Cc3ccccc3C(=O)O2)sc2c1CCCC2` (centres undefined) as the compound, how does the Potency read?
The Potency was inconclusive [inhibitor, single point].

For `CCOC(=O)C(=O)Nc1ccc(S(=O)(=O)Nc2ncccn2)cc1`, which activity change, negative = growth inhibition is on record?
Its activity change, negative = growth inhibition is inconclusive: -31.9% [inhibitor].

With `O=S(=O)(c1ccc(Br)s1)N1CCN(c2ccnc3cc(Cl)ccc23)CC1` as the compound, how does the Potency read?
Its Potency is inconclusive [inhibitor, single point].

For `O=C(NCCc1ccc(F)cc1)c1ccc2c(=O)n3c(nc2c1)CCC3`, which activity change, negative = growth inhibition is on record?
The activity change, negative = growth inhibition was inconclusive: -26.1% [inhibitor].

Which Potency does the source give for `Cc1ccc(CCNC(=O)c2coc3nc4ccccc4nc23)cc1` here?
The Potency was inconclusive [inhibitor, single point].

Which Potency does the source give for `Nn1cnnc1SC1CCCCC1NS(=O)(=O)c1ccccc1` (centres undefined) here?
Its Potency is “inactive”.

With `COc1ccccc1-c1cccc2nccn12` as the compound, how does the activity change, negative = growth inhibition read?
Its activity change, negative = growth inhibition is inconclusive: -33.8% [inhibitor].

For `CC(=O)Nc1ccc(S(=O)(=O)N2CCC(c3ccncc3)CC2)cc1`, which Potency is on record?
The Potency was active: 5.17 µM.

For `CCCCN(CCCC)c1ncnc2c1cnn2-c1cccc(C)c1`, which Potency is on record?
Its Potency is inconclusive [inhibitor, single point].

With `COc1cccc(=O)c2c(C)n(C)c(C)c12` as the compound, how does the Potency read?
Its Potency is inconclusive [inhibitor, partial curve].

Which Potency does the source give for `COc1ccc(Oc2ncc3nc(CCc4ccccc4)c(=O)n(CCC#N)c3n2)cc1` here?
Its Potency is inconclusive [inhibitor, single point].

Which activity change, negative = growth inhibition does the source give for `O=C(NCc1cccs1)c1ccc(CS(=O)(=O)c2ccc(Cl)cc2)o1` here?
The activity change, negative = growth inhibition was inconclusive: -34.3% [inhibitor].

For `Cn1cccc1C(=O)N1CCC2(CCCN(c3ccccn3)C2)CC1`, which Potency is on record?
Its Potency is “inactive”.

Which Potency does the source give for `O=C(COc1ccc(/C=C\[N+](=O)[O-])cc1)N1CCOCC1` here?
Its Potency is inconclusive [inhibitor, partial curve].

With `COC(=O)[C@@]12CCCN1[C@H](c1ccc(-c3ccc(OC)cc3)cc1)[C@@H]1C(=O)N(C)C(=O)[C@@H]12` as the compound, how does the Potency read?
Its Potency is active: 18.4 µM.

For `Cc1cc(C)n(C(C)CC(=O)NCc2ccccc2C)n1` (centres undefined), which Potency is on record?
Its Potency is “inactive”.

With `COC1C=CC=C(C)C(=O)NC2=CC(=O)C(N)=C(CC(C)CC(OC)C(O)C(C)C=C(C)C1OC(N)=O)C2=O` (centres undefined) as the compound, how does the Potency read?
Its Potency is active: 0.164 µM.

With `COc1ccc(Cl)cc1-n1c(C)cc(C(=O)OCC(=O)N2CC(=O)Nc3ccccc32)c1C` as the compound, how does the Potency read?
The Potency was inconclusive [inhibitor, single point].

For `COc1ccc(CCNC(=O)CCCn2c(=O)c3cccn3c3cccnc32)cc1OC`, which Potency is on record?
The Potency was inconclusive [inhibitor, single point].

Which Potency does the source give for `CCOC(=O)c1c(C)[nH]c(C)c1C(=O)COC(=O)c1ccc(Cl)c(S(=O)(=O)NCc2ccccc2)c1` here?
The Potency was active: 20.6 µM.

With `Cc1ccc2c(CN3CCN(Cc4ccccc4Cl)CC3)cc(=O)oc2c1` as the compound, how does the Potency read?
Its Potency is active: 16.4 µM.

With `CCC(c1nnnn1Cc1ccco1)N(Cc1cc2cc(C)cc(C)c2[nH]c1=O)CC1CCCO1` (centres undefined) as the compound, how does the Potency read?
Its Potency is active: 14.6 µM.

For `O=C(CN1CCC(C(=O)c2ccc3c(c2)OCCO3)CC1)Nc1ccccc1F`, which activity change, negative = growth inhibition is on record?
The activity change, negative = growth inhibition was inconclusive: -30.6% [inhibitor].

For `CC(=O)c1cccc(OCc2cc(C(=O)N(C)CCC3CCOCC3)no2)c1`, which Potency is on record?
The Potency was inconclusive [inhibitor, partial curve].

With `CC(=O)Nc1cc2c(cc1Br)-c1ccccc1C2` as the compound, how does the Potency read?
The Potency was “inactive”.

For `CCOC(=O)c1cnn(-c2ccccc2)c1-n1cccc1C(=O)C(=O)Nc1ccc(OC)cc1`, which Potency is on record?
The Potency was inconclusive [inhibitor, full curve, poor fit].

For `O=C(NCC1Cc2cc(F)cc(-c3cnccn3)c2O1)c1cccc(Cl)c1` (centres undefined), which Potency is on record?
The Potency was inconclusive [inhibitor, single point].

With `COc1ccccc1CNC(=O)OCc1nccnc1C(=O)Nc1ccc(Br)cn1` as the compound, how does the activity change, negative = growth inhibition read?
The activity change, negative = growth inhibition was inconclusive: -31% [inhibitor].

Which Potency does the source give for `Cc1cccc(N2CCC(NCc3c(C(=O)N4CCCCC4)nc4c(C)cccn34)CC2)c1` here?
The Potency was inconclusive [inhibitor, partial curve].

Which Potency does the source give for `CC(C)(C)c1ccccc1OCCOCCNCc1ccccc1` here?
Its Potency is active: 16.4 µM.

Which Potency does the source give for `Cc1ccccc1C(=O)c1cccn1CC(=O)NCc1ccc(Cl)cc1` here?
Its Potency is inconclusive [inhibitor, single point].

Which Potency does the source give for `CCCCOc1ccc(C2C(=O)N(C3CCCCC3)CC(=O)N2CC2CCCO2)cc1` (centres undefined) here?
Its Potency is inconclusive [inhibitor, partial curve, poor fit].

For `CCC1CN(C(=O)NCc2cccc(OC)c2)c2cc(Cl)ccc2O1` (centres undefined), which Potency is on record?
The Potency was active: 14.6 µM.

Which Potency does the source give for `COc1ccc(OCc2ccc(-c3nc(C#N)c(N4CCN(C)CC4)o3)o2)cc1` here?
Its Potency is inconclusive [inhibitor, single point].

Which Potency does the source give for `COc1ccc(C(=O)CNc2ccccc2C#N)cc1` here?
The Potency was inconclusive [inhibitor, single point].

Which Potency does the source give for `O=C(CN1CCCc2ccccc21)Nc1cccc(S(=O)(=O)N2CCOCC2)c1` here?
The Potency was inconclusive [inhibitor, single point].

With `CN(C)c1ccc(CNC(=O)C2(C)Cc3c(-c4ccccc4)ccnc3O2)cc1` (centres undefined) as the compound, how does the Potency read?
The Potency was inconclusive [inhibitor, single point].

Which Potency does the source give for `CC(=O)Nc1ccc(NC(=O)COc2cccc3c2OC(C)(C)C3)cc1` here?
The Potency was “inactive”.

For `COc1ccc(C2CC(=O)Nc3c2c(=O)nc2c(C)cccn32)cc1OC` (centres undefined), which Potency is on record?
The Potency was “inactive”.
